# Experimental data taken from the supplement of paper PMC12217912.
# The list shows a part of the results. Sequences were assembled here from the parent chain. Values near 0.05 are background.
# B1: TEV protease; numbered along this chain (parent)
# chain: MGESLFKGPRDYNPISSSICHLTNESDGHTTSLYGIGFGPFIITNKHLFRRNNGTLVVQSLHGVFKVKDTTTLQQHLVDGRDMIIIRMPKDFPPFPQKLKFREPQREERICLVTTNFQTKSMSSMVSDTSCTFPSGDGIFWKHWIQTKDGQCGSPLVSTRDGFIVGIHSASNFTNTNNYFTSVPKNFMELLTNQEAQQWVSGWRLNADSVLWGGHKVFMVKPEEPFQPVKEATQL
# Variants of: B1
# Assay: raw area under fraction-flipped curve 0-4 h after induction (AUC4h, not background-subtracted), DNA-recorder readout of cleavage of the substrate (dimensionless); higher = more cleavage of the substrate by the protease variant
# Conditions: temperature: 34 °C; time window: 0-4 h after rhamnose induction
# 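Further: Bxb1 expression induced with 0.2% (w/v) L-rhamnose at OD600 near 0.5, cultures sampled hourly, flipped fraction per protease–substrate barcode pair counted by paired-end Illumina sequencing.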
Variant,area with substrate ENLYDQS,area with substrate ENLYEQS,area with substrate ENLYGQS,area with substrate ENLYHQS,area with substrate ENLYKQS,area with substrate ENLYLQS,area with substrate ENLYMQS,area with substrate ENLYNQS,area with substrate ENLYPQS,area with substrate ENLYQQS,area with substrate ENLYRQS,area with substrate ENLYSQS,area with substrate ENLYVQS,area with substrate ENLYWQS,area with substrate ENLYIQS,area with substrate ENLYTQS,area with substrate ENLYYQS
Q146K,0.0585,0.0685,0.0557,0.061,0.0628,0.0857,0.0821,0.0678,0.0739,0.0473,0.0571,0.0422,0.118,0.0794,,,
R10M,0.0611,,,,0.0682,,,0.0667,,,,,0.107,0.0806,0.117,0.0885,0.0603
E25W,0.0559,0.0577,0.0496,0.072,0.0477,0.0908,0.0808,0.069,0.0676,0.0707,0.0641,0.0539,0.116,0.0752,0.138,0.0907,0.0654
S158G,0.0421,0.0654,0.078,0.0696,0.0604,0.1,0.102,0.0668,0.0086,0.0589,0.0846,0.0866,0.093,,0.131,0.0848,0.0663
S171F,0.0832,0.0455,,0.0565,0.0549,,0.0595,0.0639,0.0608,0.0648,,0.0642,0.0524,0.0399,0.0742,0.0586,
F140G,0.0561,0.0576,0.0648,0.0614,0.0475,0.0646,,0.0577,0.0651,,,0.0661,0.0648,0.0521,,,
T23L,0.0759,0.0688,0.0662,0.0762,0.0543,0.0891,0.0856,0.0749,0.0842,0.0666,0.0627,0.0628,0.0597,0.0836,0.131,,0.0534
G166M,0.0584,0.0634,,0.0438,0.0363,,,0.0288,0.0428,0.0191,,0.0433,0.0576,0.0522,0.0151,,0.0488
M88A,0.0514,0.0651,,0.0608,0.0514,,,0.0666,0.0778,0.0771,0.063,,,,0.0844,,0.0602
T55S,0.0674,0.0658,0.0649,0.0571,,,0.0944,0.0639,0.0658,,0.0469,,0.141,0.0845,0.122,,0.059
H47E,0.0592,0.0578,0.0716,0.058,0.0644,,0.0588,0.0619,0.0554,0.0693,0.0618,0.0631,,0.0581,0.0728,0.0752,0.0587
N52V,0.0582,0.038,0.0584,0.0626,,0.0653,0.0536,0.0591,0.0595,0.0667,,0.0453,0.0888,0.0707,0.0773,0.0624,
G28I,0.0479,0.0646,0.058,0.0358,0.0425,0.0324,0.0642,0.0501,0.0639,0.0589,0.0461,,,0.112,0.102,0.0978,0.0621
L211Q,0.0655,0.0794,0.0275,0.0727,,0.0906,0.0979,0.0746,0.0809,0.0599,,0.0736,,0.112,,0.0689,
E3H,0.065,0.0735,0.0676,0.0698,0.0626,,0.0504,0.0863,0.0776,0.0733,,0.0823,,0.0853,0.111,0.0731,0.0597
F65G,0.0488,0.0516,,0.063,0.0096,0.0714,0.072,0.0692,0.0743,0.0799,0.0629,,,,0.106,0.108,0.0774
I15Q,0.0557,0.0902,0.0533,0.0483,0.0585,0.0718,0.0763,0.0682,0.0607,0.0658,0.0549,0.0689,0.116,0.0672,0.117,0.071,0.0617
I15E,0.0391,0.0526,0.0536,0.0571,0.0573,,0.0654,0.0588,0.0507,0.0509,,0.068,0.0796,0.0603,0.0881,0.0726,
I42L,0.0535,0.0606,0.0655,0.118,0.0693,,0.08,0.0675,0.0844,,0.0329,,0.113,0.0788,0.105,,0.0615
I167A,0.0478,0.0659,0.0582,0.0547,,,,0.0571,,,,,,0.0632,,0.0654,0.0634
K230N,0.0813,0.0489,0.0623,0.0608,0.0791,,0.0641,0.0797,0.0698,,0.0567,0.0859,0.133,,0.16,,
K230D,0.0542,,0.0595,0.0685,0.0791,,,0.0671,0.0742,,0.0646,,0.125,0.117,0.115,0.0871,0.0771
P9L,0.0555,0.0839,0.0593,0.077,0.0565,,0.0806,0.0656,0.0857,0.0495,0.0696,0.0742,0.156,,,,
D11V,0.0926,0.0636,0.0678,0.0705,,0.0688,0.0589,0.0663,,0.0659,,0.0704,0.0529,0.0565,0.0805,0.108,0.0556
K98A,0.0572,0.0754,0.0548,0.0795,0.0458,,,0.0813,0.0516,0.0499,,0.113,0.0993,,,,0.0073
L77Y,0.0539,0.057,0.0593,0.0543,0.05,0.0561,0.0292,0.0595,0.0542,,0.0689,0.0614,0.058,,0.0616,0.063,
G37T,0.0569,0.0582,0.0699,0.0706,0.0431,,0.0487,0.0673,0.0654,,0.0566,0.0629,0.091,,,0.0783,
